Measurements as given in PubChem BioAssay AID2675 (National Center for Advancing Translational Sciences (NCATS), 2010).
Among all 280,000 compounds or so, about 100 (0.036%) were called active. The inconclusive results got no clear call from the source; some entries with a clear call stand among them for comparison. Calls follow the shape of the dose curve; as a rule, active = well fitted inhibition curve with a large enough effect in the signal ratio, with a control signal flat (not every such curve was filed as active); inconclusive = small, poorly fitted or top-dose-only effect, or effect the other way, or a change in a side signal; inactive = no such curve, though single readings can be large or run the other way; the % refers to the signal ratio. A potency beside an inconclusive call is a rough fit, not a confirmed value. “Side channel” marks fits to a control or component signal instead of the main read-out.

Each molecule was assayed against Muscleblind-like protein 1 (Homo sapiens) (UniProt Q9NR56) (assay: qHTS Assay for Inhibitors of MBNL1-poly(CUG) RNA binding). Details: TR-FRET MBNL1-His/biotin-(CUG)12 binding, 665/545 ratio; activity change, negative = inhibition: at 57.5 µM (top of the series).
Chain of UniProt Q9NR56 (Q9NR56 whole entry, looked up): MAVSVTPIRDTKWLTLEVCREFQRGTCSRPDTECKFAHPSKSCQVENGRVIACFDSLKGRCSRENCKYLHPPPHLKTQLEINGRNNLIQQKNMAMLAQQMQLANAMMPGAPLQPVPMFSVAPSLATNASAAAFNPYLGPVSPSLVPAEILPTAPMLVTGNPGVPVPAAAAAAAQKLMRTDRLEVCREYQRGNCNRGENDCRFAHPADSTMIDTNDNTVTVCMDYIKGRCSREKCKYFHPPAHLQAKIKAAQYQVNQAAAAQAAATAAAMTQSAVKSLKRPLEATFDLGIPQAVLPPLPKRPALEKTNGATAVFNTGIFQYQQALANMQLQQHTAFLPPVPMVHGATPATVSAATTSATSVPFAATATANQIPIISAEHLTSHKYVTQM
How it was run: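 TR-FRET readout: Ex 340 nm, 665/545 nm emission ratio, normalized to buffer-only (basal) and MBNL1-(CUG)12 controls. Complex of MBNL1-His with Biotin-(CUG)12, compounds 92 nM–58 uM, incubated 60 min at room temperature.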
% is scaled to controls: 0 for no effect and ±100 for the full control effect; potency is read from the fitted curve at half-maximal effect; tags tell the direction and shape of the fitted curve or compound fluorescence and quenching.

Row | Compound | activity change, negative = inhibition | Potency
1 | CCCN(CCC)C(=O)c1ccc2c(c1)OCO2 | inactive: 2.65% | 
2 | CS(=O)(=O)c1ncc(Cl)c(C(=O)Nc2ccc(N3CCOCC3)cc2)n1 |  | inconclusive: 20 µM [quencher, partial curve]
3 | Cc1nnc(SCC(=O)Nc2ccc([N+](=O)[O-])cc2)n1CC1CCCO1 (stereo unspecified) |  | inconclusive: 20 µM [quencher, side channel, partial curve]
4 | Cc1ccc(C2=NS(=O)(=O)N(C)C(C(=O)NCc3ccc(F)cc3)=C2)cc1 |  | inconclusive: 25.1 µM [quencher, side channel, single point]
5 | Cn1c(C(=O)N2CCN(c3ccc([N+](=O)[O-])cc3)CC2)cc2c(=O)[nH]c3ccccc3c21 |  | inconclusive: 2.51 µM [quencher, side channel, full curve]
6 | COc1ccc(C2=NS(=O)(=O)N(C)C(C(=O)N3CCCCC3)=C2)cc1OC |  | inconclusive: 20 µM [quencher, side channel, partial curve]
7 | CC(=O)c1ccc(NC(=O)c2sc3nc(N4CCOCC4)c4c(c3c2N)CCCC4)cc1 | inactive: 14.7% | 
8 | COc1ccc(S(=O)(=O)Cc2ccc(C(=O)N3CCN(c4cccc(C)c4)C(C)C3)o2)cc1 (stereo unspecified) | inactive: -10.7% | 
9 | COc1ccc([N+](=O)[O-])cc1N(CC(=O)NCc1ccco1)S(C)(=O)=O |  | inconclusive: 35.5 µM [quencher, side channel, single point]
10 | Cc1c(/C=N/NC(=O)CNc2ccccc2)c2ccccn2c1C(=O)c1ccncc1 |  | inconclusive: 3.16 µM [quencher, side channel, single point]
11 | CCc1n[nH]c(=S)n1/N=C/c1ccc(NC(C)=O)cc1 |  | inconclusive: 17.8 µM [quencher, side channel, single point]
12 | Cc1ccc2nc(N3C(=O)C(O)=C(C(=O)c4ccco4)C3c3cccc(O)c3)sc2c1 (stereo unspecified) |  | inconclusive: 25.1 µM [quencher, side channel, single point]
13 | CCOc1ccc(-n2c(O)c(/C=N/Nc3nnc(C)c(=O)[nH]3)c3ccccc3c2=O)cc1 |  | inconclusive: 20 µM [quencher, side channel, single point]
14 | O=C(CNC(=O)c1ccco1)Nc1cc(Cl)ccc1N1CCOCC1 |  | inconclusive: 10 µM [fluorescent, side channel, partial curve]
15 | CC(=O)Nc1ccc(/C(C)=N/NC(=O)CN(c2ccccc2Br)S(C)(=O)=O)cc1 |  | inconclusive: 7.94 µM [fluorescent, side channel, single point]
16 | O=C(NC1=NCCS1)C12CC3CC(CC(C3)C1)C2 | inactive: -5.42% | 
17 | Cn1cnc([N+](=O)[O-])c1Sc1nnc(-c2cccnc2)n1C |  | inconclusive: 14.1 µM [quencher, side channel, partial curve]
18 | O=C1Nc2cc(C(=O)N3CCC(N4CCCCC4)CC3)ccc2S/C1=C\c1ccccc1 |  | inconclusive: 14.1 µM [quencher, side channel, partial curve]
19 | COc1ccc(N2CCN(CCCNC(=O)Cn3c(=O)c4cccn4c4ccccc43)CC2)cc1 | inactive: 17.6% | 
20 | CCOC(=O)Cc1c(C)c2ccc(N(CC)CC)cc2oc1=O |  | inconclusive: 11.2 µM [quencher, side channel, partial curve]
21 | COc1ccc(CCNC(=O)c2cc3c(=O)n4cccc(C)c4nc3n(CCCN3CCOCC3)c2=N)cc1 |  | inconclusive: 2.24 µM [quencher, side channel, partial curve]

Row | Compound | activity change, negative = inhibition | Potency
22 | CCOC(=O)N1CCN(C(=O)Nc2ccc3nccnc3c2)CC1 |  | inconclusive: 3.16 µM [quencher, side channel, partial curve]
23 | CC[N+]1(CC)CC2=Cc3c(ccc4ccccc34)C(C)C2C1 (stereo unspecified) |  | inconclusive: 15.8 µM [quencher, side channel, partial curve]
24 | CC(=O)N(Cc1ccccc1)Cc1cn(CCC#N)nc1-c1cccc([N+](=O)[O-])c1 |  | inconclusive: 14.1 µM [quencher, side channel, partial curve]
25 | CN(CC(=O)NC1CCCCC1)S(=O)(=O)c1cccc2nsnc12 |  | inconclusive: 17.8 µM [quencher, side channel, partial curve]
26 | O=C(NC(=S)Nc1cc([N+](=O)[O-])ccc1O)C1CC1 |  | inconclusive: 15.8 µM [quencher, partial curve]
27 | Cc1cc(Br)ccc1NC(=S)Nc1cccc([N+](=O)[O-])c1 | inconclusive: 14.4% [phenotype inactive] | 
28 | CC(=O)CCc1ccc(OCCCCN2CCC(Cc3ccccc3)CC2)cc1 | inactive: -8.36% | 
29 | O=C1C2C(C(=O)N1/N=C/c1cc([N+](=O)[O-])c(O)cc1O)C1C=CC2C12CC2 (stereo unspecified) |  | inconclusive: 17.8 µM [quencher, side channel, partial curve]
30 | COC(=O)C1=NN(C(=O)c2ccccc2)C(O)(c2ccc([N+](=O)[O-])cc2)C1 (stereo unspecified) |  | inconclusive: 12.6 µM [quencher, side channel, partial curve]
31 | Cc1[nH]c2ccc3ccccc3c2c(=O)c1C/C=C/Cl | inactive: 22.6% | 
32 | O=C(N/N=C/c1ccc([N+](=O)[O-])cc1)c1ccc2nc[nH]c2c1 |  | inconclusive: 2.82 µM [quencher, side channel, full curve]
33 | O=c1[nH]c2cc3c(cc2cc1CN(Cc1cccs1)Cc1nnnn1Cc1ccco1)OCCO3 |  | inconclusive: 39.8 µM [quencher, side channel, single point]
34 | COCCNC(=O)c1cccc(OC2CCN(Cc3ccc(OC(F)F)cc3)CC2)c1 | inactive: -2.84% | 
35 | CCOc1cc(/C=C(\C#N)C(=O)Nc2cccc(C(=O)O)c2)ccc1OCc1ccccc1Cl | inactive: 1.83% | 
36 | COc1ccc([C@H]2Oc3cc(O)cc(O)c3C(=O)C2[C@@H]2C(=O)c3c(O)cc(O)cc3O[C@@H]2c2ccc(OC)cc2)cc1 (stereo partly specified) | inactive: -5.95% | 
37 | Cc1cccc(-n2c(C)cc(C(=O)NC3CCCCC3)c2C)c1 |  | inconclusive: 0.1 µM [fluorescent, side channel, full curve]
38 | CC(C)C(=O)Nc1nc2cc3c(cc2s1)OCO3 |  | inconclusive: 39.8 µM [quencher, side channel, single point]
39 | COCCNC(=S)Nc1cc(OC)c(NC(=O)c2ccco2)cc1OC | inactive: -6.52% | 
40 | NC(=O)c1ccc2c(c1)S(=O)(=O)c1ccccc1C2=O |  | inconclusive: 2.24 µM [quencher, side channel, full curve]
41 | CSc1nncc(-c2ccccc2)n1 |  | inconclusive: 28.2 µM [quencher, side channel, partial curve]
42 | COCCSc1ccccc1C(=O)Nc1cc([N+](=O)[O-])ccc1OC |  | inconclusive: 20 µM [quencher, side channel, partial curve]

Row | Compound | activity change, negative = inhibition | Potency
43 | Cc1ccc2c(c1)N=C(c1ccccc1)CC(C(Cl)Cl)=N2 | inactive: 22.8% | 
44 | CC(C)OC(=O)c1ccc(COC(=O)c2cccc(-c3nnc(-c4ccccc4)o3)c2)cc1 | inactive: -1% | 
45 | Cc1ccc(C(C(=O)NC2CCCC2)N2CCCC(C)C2)cc1 (stereo unspecified) |  | inconclusive: 3.55 µM [quencher, side channel, single point]
46 | CN1/C(=C/C=N/n2cnnc2)C(C)(C)c2ccccc21 | inactive: 4.95% | 
47 | O=C(NC1CCS(=O)(=O)C1)c1ccc(-c2ccc(Br)cc2)o1 (stereo unspecified) |  | inconclusive: 12.6 µM [quencher, side channel, partial curve]
48 | COc1cccc(NC(=O)CC(=O)c2ccc([N+](=O)[O-])cc2)c1 |  | inconclusive: 14.1 µM [quencher, side channel, partial curve]
49 | NC(=O)N=Nc1c(O)n(Cc2ccccc2)c2ccc(Br)cc12 |  | inconclusive: 3.55 µM [quencher, side channel, full curve, poor fit]
50 | O=C(CCNC(=O)c1ccc([N+](=O)[O-])cc1)Nc1nccs1 |  | inconclusive: 15.8 µM [quencher, side channel, partial curve]
51 | CC1CCN(C(=O)C2CCN(S(=O)(=O)c3cccc4nsnc34)CC2)CC1 |  | inconclusive: 3.16 µM [quencher, side channel, full curve, poor fit]
52 | COC(=O)c1ccc(CN2CCCC(CO)(Cc3ccc(F)cc3F)C2)cc1 (stereo unspecified) | inactive: -2.09% | 
53 | N#C/C(=C\c1cccs1)C(=O)NCC1CCCO1 (stereo unspecified) |  | inconclusive: 31.6 µM [quencher, side channel, single point]
54 | O=C(CCN1C(=O)c2ccccc2S1(=O)=O)NCc1ccco1 | inactive: -12.5% | 
55 | Cc1c[nH]c(=O)c([N+](=O)[O-])c1 |  | inconclusive: 28.2 µM [quencher, partial curve]
56 | Brc1ccc(-c2cn3nc4c(nc3n2)CCCC4)cc1 |  | inconclusive: 3.98 µM [quencher, side channel, partial curve]
57 | N#Cc1cccc(C#N)c1N1CCC(C#N)CC1 |  | inconclusive: 35.5 µM [fluorescent, side channel, single point]
58 | CCn1ncc(Cl)c1C(=O)NC(=S)Nc1c(C)cc(C)cc1[N+](=O)[O-] | inactive: 8.2% | 
59 | Cn1c(=O)nc2n(Cc3ccccc3)c3ccccc3cc-2c1=O |  | inconclusive: 5.62 µM [quencher, side channel, partial curve]
60 | CCCS(=O)(=O)N1CCN(CCN2C(=O)c3cccc4cccc(c34)C2=O)CC1 |  | inconclusive: 8.91 µM [quencher, side channel, full curve]
61 | COc1ccc(C2=Nn3c(nnc3-c3ccccc3OC)SC2)cc1OC | inactive: 12.5% | 
